Data taken from article PMC5515408.
The other results are listed elsewhere or left out. At the low end of the ranking, values are background and their order means little.

These sequences were tested against MAX:MAX (p21) (UniProt P61244-2) (assay: protein-binding microarray (anti-MAX antibody)). Settings: PBM: 15 mM Tris-HCl pH 7.5, 100 mM KCl, 0.075% NP40, 7.5 mM beta-mercaptoethanol, 375 ng/ul BSA, 8 ng/ul poly(dA-dT):(dA-dT), 550 ng complex, 60 min, room …; high values mean tight binding; double strand, one strand shown; sequences stand for … in CCGGC…TTAATAGCTAAGATTACTATATCGACG.

Sequence | binding signal (log2 normalized fluorescence)
CTTCACGTGGTA | 3.1
TGACATGTAGTA | 1.02
TGACCTATGGTA | -0.0465
TGACGTTTGGTA | -0.649
TGATGCGAAGTA | -0.344
TGAGTTGAGGTA | -0.631
TGAACGAGCGTA | -0.202
GTATACGTGGTA | 1.62
TGATCGTGGGTA | 0.751
GGACACGTTGTT | 3.24
TGATTGACAGTA | -0.751
TGAGGCAGCGTA | -0.447
TGAACACATGTA | 3.21
TGACTTGAAGTA | -0.602
TGATAGGCTGTA | -0.837
GAACACGTGGTA | 3.34
TGACACGTTTTA | 2.98
TGAAAGTAAGTA | -0.774
TGAAGCGCGGTA | 0.738
TGAGAGCCAGTA | -0.917
TGACTCTCAGTA | -0.859
TGATCCCAGGTA | -0.83
TGACGACATGTA | 0.964
TGACGTGCGGTA | 1.29
TGACCGTCAGTA | -0.303

Sequence | binding signal (log2 normalized fluorescence)
TGACCGTCTGTA | -0.178
TGAAGTAAAGTA | -0.746
TGAATCATAGTA | -0.822
TGATTCGGAGTA | -0.92
TGAGCGGTTGTA | -0.742
TGAGGGCGTGTA | 1.37
TGATCAACCGTA | -0.486
TGAACTAGCGTA | -0.848
TTAAACGTGTTA | 2.7
TGATGGGTCGTA | -0.154
TGACCATCGGTA | -0.214
TGAAGAATAGTA | -1.12
TGAATCGTGGTA | 1.18
TGATATACAGTA | -0.979
TGAGGGATCGTA | -0.869
TGATGGAGCGTA | -0.127
TGAGACAACGTA | -0.46
TGAGCATAAGTA | -0.0306
TGAAATATGGTA | 0.0492
ACTTAGGGGGGT | 2.23
TGACACGTGGGA | 3.16
TGATAATACGTA | -0.575
TGAATCACTGTA | -0.285
TGACACGGGCTA | 1.61
TGAAATGCAGTA | 0.012

Sequence | binding signal (log2 normalized fluorescence)
TGATCCCGTGTA | 1.51
TGACACGTCGAA | 1.45
TGAGCTCGTGTA | 2.17
TGATCCTGTGTA | -0.17
TGACACGTGGTA | 3.19
TGAACAACTGTA | -0.387
TGAAGCATAGTA | -0.349
TGATCCCGAGTA | -0.715
TGAGGTGTGGTA | 0.791
TGGTGCGTGGTA | 2.26
TGAGGTCGTGTA | -0.099
TGAAATCTTGTA | -0.976
TGAGCCTCTGTA | -1.13
TGAGGAAGAGTA | -0.942
TGAGGAGCTGTA | -0.888
TGACGCCGGGTA | -0.341
TGACCCGTGGCT | 2.46
TGAAATCGGGTA | -0.814
TGAGCGGCTGTA | -0.467
TGATTGGGAGTA | -0.719
TGAAGGTGAGTA | -0.37
TGAAGCTCTGTA | -0.942
TGAACAGTAGTA | -0.749
TGAGGTGGGGTA | 1.14
TGAACAATTGTA | -0.588
